Test results reported in PubChem BioAssay AID1508623 (National Center for Advancing Translational Sciences (NCATS), 2021).
About 450 (0.94%) of roughly 48,000 compounds were called active. Another 19% or so got no clear call; they are omitted. The call rests on the fitted dose curve; in most records, active means well fitted inhibition curve with a large enough effect; inconclusive means small, poorly fitted or top-dose-only effect; inactive means no such curve, though single readings can be large or run the other way. Some of the results follow.

Test: Primary qHTS for Identification of Small Molecule Inhibitors of Huntingtin Promoter Activity; further: nearly all actives have a fitted effect of over 50% in size
Conditions: HEK293 HTT promoter firefly luciferase reporter (activity 0% = vehicle and -100% = no light), 24 h; series mostly up to 57.5 µM; activity change, negative = inhibition: at the top concentration
How it was run: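 Quantitative HTS used concentration series of up to 57.5 uM final on HEK293 luciferase reporter cells, 24 h at 37 degrees C. Readout was Dual-Glo firefly luminescence.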

Activity change, negative = inhibition, inactive:
CCc1ccc(S(=O)(=O)c2nnn3c2nc(N2CCC(C(N)=O)CC2)c2cc(Cl)ccc23)cc1 -10.5%, Cc1c(C(=O)Nc2cccc(C#N)c2)sc2nc3n(c(=O)c12)CCCCC3 49.8%, CC(C)CC(=O)NCC1(N(C)C)CCCCC1 -9.45%, COc1ccc(CNC(=O)C(C)N2Cc3ccccc3C2=O)cc1 (configuration not stated) -11.5%, Cc1nc(-c2ccccc2)sc1CCNC(=O)C(=O)Nc1ccc2c(c1)OCCO2 3.76%, Cc1ccc(CNC(=O)CCCN2C(=O)c3cccnc3Oc3ccc(Cl)cc32)cc1 -19.7%, COc1cc(OC)c(NC(=O)N2CCc3c(sc4c3CCCC4)C2c2ccccc2)cc1Cl (configuration not stated) -28.6%, O=C(Nc1nnc(S(=O)(=O)N2CCCCCC2)s1)c1ccccc1Cl -17.7%, CCOc1ccc(NC(=O)c2cc3c(s2)-c2ccccc2OC3)cc1 -21.8%, Cc1cccc(NC(=O)C(Cc2ccccc2)n2cccc2)c1C (configuration not stated) -20.8%, COc1ccccc1Cc1nc2ccccc2nc1SCC(=O)N1CCc2ccccc21 -4.46%, COc1cc(N)c(Cl)cc1C(=O)NC1CCN(Cc2ccccc2)CC1 0.934%, COc1ccccc1N1CCN(c2ccc(-c3nc(-c4ccccc4C)no3)cc2[N+](=O)[O-])CC1 27.1%, CCOC(=O)c1ccc(NC(=O)CSc2nccn2-c2ccc(OCC)cc2)cc1 -33.2%, FC(F)(F)c1cccc(-c2nnn3c2nc(NC2CCCCC2)c2ccccc23)c1 -16.2%, Cc1cccc(N2CCN(C(=O)Cn3cnc4sc(C)c(S(=O)(=O)N5CCN(c6ncccn6)CC5)c4c3=O)CC2C)c1 (configuration not stated) -9.07%, CCC(C)NC(=O)C1CCN(C(=O)c2ccc(-n3ccc4ccccc43)s2)CC1 (configuration not stated) -0.598%, COc1ccccc1CCNC(=O)Cc1c(C)c2c(cc(C)c3c(C)c(C)oc32)oc1=O -0.192%, S=P(N1CC1)(N1CC1)N1CC1, COc1ccc(NC(=O)C(C)n2nnc3sc(-c4ccccc4)cc3c2=O)cc1Cl (configuration not stated) 8.74%, CCOc1ccc(CCNC(=O)c2cc(=O)[nH]c3ccc(S(=O)(=O)N4CCCCC4)cc23)cc1OCC -8.53%, CCOc1ccccc1CNC(=O)C1CCN(S(=O)(=O)c2c(C)noc2/C=C/c2ccc(C)cc2)CC1 -22.7%, COc1cccc(NC(=O)C(=O)NCCc2csc(-c3ccc(C(F)(F)F)cc3)n2)c1 59.9%, Cc1ccccc1OCC(=O)Nc1ccc(OCc2cc(=O)n3ccsc3n2)cc1 -8.34%, CCOC(=O)c1cccc(NC(=O)N2CCC(CN3CCc4ccccc4C3)CC2)c1 -29.2%, O=C(Cc1ccc(F)cc1)NCc1nc2cccnc2n1Cc1ccc(F)cc1 6.87%, CCOc1ccc(S(=O)(=O)c2c[nH]c3ccccc3c2=O)cc1 -25.4%, COc1ccc(CCNC(=O)C2CCN(c3ncnc4c3nc3n4CCCCC3)CC2)c(OC)c1 -16.3%, NS(=O)(=O)c1ccc(CCNC(=O)c2ccc3nc(Cc4ccccc4)oc3c2)cc1 0%, CCCc1cc(=O)oc2cc(C)c3c(-c4cccc(OC)c4)coc3c12 4.88%, CC1CCCN(Cc2nc3c(c(=O)n(C)c(=O)n3C)n2Cc2ccc(Cl)cc2Cl)C1 (configuration not stated) -8.48%, CCOC(=O)c1cccc(NC(=O)N2CC(CC)Sc3ccccc32)c1 (configuration not stated) -0.616%, COc1cccc(-c2nc(SCC(=O)NCC3CCCO3)c(-c3ccc(F)cc3)[nH]2)c1 (configuration not stated) -19.7%, CN(C)CCNC(=O)CN1C(=O)CCn2nc(-c3cn(C)c4ccccc34)cc21 -1.93%, CCc1ccc(NC(=O)Cn2ncc3c(C)n(Cc4cccc(Cl)c4)c(C)c3c2=O)cc1 3.37%, O=C(Nc1cccc(C(=O)N2CCN(c3ccccc3F)CC2)c1)c1nsc2ccccc12 -6.57%, COC(=O)c1cc2sccc2n1Cc1nc(-c2cccc(Br)c2)oc1C -14.7%, CCC1CCCCN1C(=O)CSc1n[nH]c(-c2ccccc2Cl)n1 (configuration not stated) 22.5%, CCN(c1ccc(OC)cc1)S(=O)(=O)c1nnc(NC(=O)c2ccccc2C)s1 -31.1%, CCOc1ccc(NC(=O)Cn2c(=O)n(CC3CCCO3)c(=O)c3ccccc32)cc1 (configuration not stated) -11.1%, CCc1ccc(-n2nc(C)c3c(C)cc(=O)n(CC(=O)NCc4ccc(C)cc4)c32)cc1 -8.52%, CCc1ccc(NC(=O)CSc2nc(C)cc(COC)c2C#N)cc1 -10.1%, CC(C)CCNc1nc2c(S(=O)(=O)c3ccc(Br)cc3)nnn2c2ccsc12 0.589%, CCc1cc2c(cc3c(=O)n(CC(=O)N4CCN(c5cc(Cl)ccc5C)CC4)nc(CC)n32)s1 0.525%, CCCCCCc1cc2cc(-c3nnc(-c4ccc(C)cc4)o3)c(=O)oc2cc1O -13.8%, C=Cc1ccc(Cn2c(=O)n(-c3ccc(C)cc3)c(=O)c3c2c2cc(OC)ccc2n3C)cc1 -5.7%, CCOc1ccc2nc(N3CCCC(C(=O)NCc4ccccc4Cl)C3)sc2c1 (configuration not stated) 32.2%, COc1ccc(CCNC(=O)CCCCCn2c(=O)[nH]c3cc(OC)c(OC)cc3c2=O)cc1OC 7.01%, CC(=O)Nc1nnc(SCc2cc(=O)c3cccc(C)c3[nH]2)s1 -1.84%, CC1=C(C(=O)Nc2ccc(C)cc2C)C(c2cccn2C)n2ncnc2N1 (configuration not stated) -5.61%, CC(C)C(=O)Nc1cccc(NC2=NS(=O)(=O)c3ccccc32)c1 4.66%, NC(N)=NCCN1CCCCCCC1 8.48% [at 0.739 µM], CCOC(=O)c1cccc(NC(c2nnc(-c3ccccc3)o2)c2ccccc2F)c1 (configuration not stated) -14.9%, Cc1ccc(C)c(N2CCN(c3nc4ccccc4c4nc(-c5cccnc5)nn34)CC2)c1 -5.76%, Cc1ccc2c(c1)c(=O)c(C(=O)c1ccncc1)cn2CC(=O)Nc1ccccc1Cl -25.4%, Cc1ccc(CNC(=O)C2CCCN(c3nnc(-n4c(C)ccc4C)s3)C2)cc1 (configuration not stated) -17.1%, COc1ccc(NC(=O)CSc2nc(O)c(C/C=C/c3ccccc3)c(=O)[nH]2)cc1 -17.3%, CCSc1nc(-c2ccc(Cl)cc2)nc2c1Cc1c(CO)cnc(C)c1O2 -14.5%, COc1ccc(-c2cc(C(F)(F)F)n3nc(C(=O)Nc4cccc(C(F)(F)F)c4)c(Br)c3n2)cc1 -2.12%, CCOC(=O)c1ccc(NC(=O)CCn2cnnn2)cc1 6.69%, COC(=O)c1cnc(N2CCN(c3ccccc3OC)CC2)c2ccccc12 -2.87%, CCOC(=O)c1sc2ccccc2c1S(=O)(=O)NCc1ccc(F)cc1 -8.74%, O=C(NCc1ccccc1Cl)c1ccc(CSCc2cccc(F)c2)o1 -14.6%, Nc1nc(N)nc(-c2cc(Cl)ccc2Cl)n1, Cc1ccc(NC(c2nnc(-c3ccccc3)o2)c2ccccc2F)c([N+](=O)[O-])c1 (configuration not stated) 30.8%, CCN1CCCC1CNC(=O)c1cc(S(=O)(=O)CC)c(N)cc1OC (configuration not stated), Cc1ccc(-n2nnnc2CNC(=O)c2ccccc2F)cc1C 12.3%, O=C(O)CCn1cnc2onc(-c3ccccc3Cl)c2c1=O -16.5%, Cc1cccn2c(=O)cc(COc3ccc(NC(=O)c4cccc(F)c4)cc3)nc12 -4.7%, CCC1CCCCN1C(=O)Cn1c(=O)n(CCCCCC(=O)NCc2ccc(F)cc2)c(=O)c2sccc21 (configuration not stated) -12.8%, O=C(Nc1c(C(=O)Nc2cccc(C(F)(F)F)c2)oc2ccccc12)c1cc(=O)c2ccccc2o1 -15.6%, CCc1cccc(NC(=O)Cn2cc(C(=O)c3ccncc3)c(=O)c3cc(C)c(C)cc32)c1 -26.4%, O=c1[nH]c(-c2ccc(C(F)(F)F)cc2)nc2c1CSCC2 -0.955%, O=C(Cc1cccs1)NC1CC(=O)N(c2ccc(Cl)cc2)C1 (configuration not stated) 0.697%, CC(C)Sc1ncc(Cl)c(C(=O)N(Cc2ccc(F)cc2)C2CCS(=O)(=O)C2)n1 (configuration not stated) -21.2%, Cc1ccc(-c2nn3c(-c4ccccc4)nnc3c3ccccc23)cc1 -9.23%, COc1ccc2[nH]c(S(=O)Cc3ncc(C)c(OC)c3C)nc2n1 (configuration not stated) -0.304%, Cc1cccc(C(=O)OCc2cc(=O)n3nc(C4CCCCC4)sc3n2)c1 -3.55%, COc1ccc(N2Cc3cccc(C(=O)Nc4ccc(C)c(C)c4)c3C2=O)cc1 3.13%, O=C(NCCC1=CCCCC1)c1ccc2c(c1)N(Cc1ccccc1F)C(=O)c1ccccc1S2(=O)=O -12.9%, Cc1ccc(NC(=O)CN2C(=O)C(C)(C)c3ccccc32)cc1 -11.7%, CCOc1ccc(N2CC(NC(=O)Cc3ccccc3)CC2=O)cc1 (configuration not stated) -0.528%, COc1ccc(N2CC(NC(=O)COc3ccccc3C)CC2=O)cc1OC (configuration not stated) -3.45%, CCOC(=O)c1cc(-c2ccccc2)n(-c2cccc(C(=O)N(CC)c3ccccc3)c2)c1C -17.1%, Cc1c2cnn(-c3ccccc3)c(=O)c2c(C)n1C(C)C(=O)Nc1ccc(Br)cc1F (configuration not stated) 14.2%, Cc1ccc(-n2c(SCC(=O)Nc3cccc(F)c3)nc3c(oc4ccccc43)c2=O)cc1C -6.93%, COc1ccc(N2CCN(C(=O)NCc3noc4ccccc34)CC2)cc1 -6.02%, Cc1cc(C)cc(-n2ccn3c(CC(C)(C)CC(=O)O)nnc3c2=O)c1 -13.1%, Cc1ccc2oc3c(c(=O)c2c1)C(c1cccc(O)c1)N(Cc1ccccc1Cl)C3=O (configuration not stated) -28.1%, CCCOc1ccc(CN(C(=O)c2nc(SC(C)C)ncc2Cl)C2CCS(=O)(=O)C2)cc1 (configuration not stated) -18.2%, CCOc1ccc(/C=C/c2nc(C#N)c(Nc3ccc(OC)cc3)o2)cc1 3.45%, N#Cc1ccccc1Cn1c(=O)n(Cc2ccc(C(=O)NC3CCN(Cc4ccccc4)CC3)cc2)c(=O)c2ccccc21 -8.9%, Fc1ccc(-c2ccc(CNCCSc3nnnn3-c3ccccc3)o2)cc1Cl -29.5%, O=C(Nc1c(C(=O)Nc2cccc(F)c2)oc2ccccc12)c1cc2ccccc2o1 -5.89%, CCNC(=O)c1ccc2nc(Cc3ccccc3)oc2c1 33.2%, COc1cc2[nH]c(=O)n(CCCCCC(=O)NCCc3ccccc3)c(=O)c2cc1OC -9.01%, CCOC(=O)c1c(NC(=O)COc2cccc(C(F)(F)F)c2)sc2c1CCCCC2 -12.3% [at 11.5 µM]
